Measured values: the supplement of paper PMC9446081
Out of some 39,000 compounds screened, about 220 (0.56%) showed activity. This is one part of the list.

Tested on: Escherichia coli K-12 BW25113
Test: relative growth (OD600 normalised to plate interquartile mean) (fraction); higher = less growth inhibition, active = 0.2 or less
Conditions: 50 µM; LB; incubation time: overnight (16-24 h)
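Also: static incubation at 37 °C against the wild-type strain, values averaged over two biological replicates.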

SMILES | relative growth
C[C@@H]1CN([C@H](C)CO)C(=O)c2c(c3ccccc3n2C)-c2ccccc2CO[C@H]1CN(C)Cc1ccc2c(c1)OCCN2C | inactive: 0.961
C[C@H]1CN([C@@H](C)CO)C(=O)c2cc(NS(C)(=O)=O)ccc2O[C@H]1CN(C)C(=O)Nc1ccc(F)cc1 | inactive: 1
C[C@H]1CN([C@@H](C)CO)C(=O)CCCn2nncc2CO[C@H]1CN(C)S(=O)(=O)c1ccc2ccccc2c1 | inactive: 1.01
C[C@H]1CCCCO[C@@H](CN(C)CC2CCCCC2)[C@@H](C)CN([C@@H](C)CO)C(=O)c2cc(NC(=O)Nc3ccc4c(c3)OCO4)ccc2O1 | inactive: 0.966
O=C(C[C@@H]1CC[C@@H]2[C@H](COC[C@H](O)CN2Cc2ccccc2F)O1)N[C@H]1CCN(Cc2ccccc2)C1 | inactive: 0.994
C[C@@H]1CN([C@@H](C)CO)C(=O)c2cc(NC(=O)CCCCCC(=O)Nc3ccccc3N)ccc2O[C@@H]1CN(C)CC1CCCCC1 | inactive: 0.98
CCCNC(=O)C[C@@H]1CC[C@H]2[C@H](COc3ccc(NC(=O)c4ccc5c(c4)OCO5)cc3C(=O)N2C)O1 | inactive: 1.02
C[C@@H]1CCCCO[C@H](CN(C)C(=O)Nc2cccc3ccccc23)[C@@H](C)CN([C@H](C)CO)C(=O)c2cc(NC(=O)c3ccncc3)ccc2O1 | inactive: 0.998
O=C(CCC1CCCC1)N1CCCC1 | inactive: 1.02
CC(C)NC(=O)Nc1ccc2c(c1)C(=O)N([C@@H](C)CO)C[C@@H](C)[C@@H](CN(C)Cc1ccc(Oc3ccccc3)cc1)O2 | inactive: 0.96
C[C@@H]1CCCCO[C@H](CN(C)S(=O)(=O)c2cn(C)cn2)[C@@H](C)CN([C@@H](C)CO)C(=O)c2cc(NC(=O)Nc3cccc4ccccc34)ccc2O1 | inactive: 1
C[C@H]1CN([C@@H](C)CO)C(=O)Cc2cc(NS(=O)(=O)c3ccccc3)ccc2O[C@@H]1CN(C)Cc1ccc(Oc2ccccc2)cc1 | inactive: 0.968
CC(O)C(=O)[O-].[NH4+] (stereo not drawn) | inactive: 1.15
O=C1CCCN1C[C@H]1CCCNC1 | inactive: 0.956
NS(=O)(=O)C#Cc1ccccc1 | inactive: 0.241
COc1ccc2cc(-c3cc(-c4cc(Cl)cc(Cl)c4)nn3[C@@H](C)c3ccc(C(=O)NCCC(=O)O)cc3)ccc2c1 | inactive: 1.06
C[C@H](CO)N1C[C@H](C)[C@H](CN(C)S(=O)(=O)c2ccccc2)Oc2cc(C#Cc3ccncc3)ccc2S1(=O)=O | inactive: 1.03
CCCCC(=O)OCC(=O)[C@]1(O)Cc2c(O)c3c(c(O)c2[C@@H](O[C@H]2C[C@H](NC(=O)C(F)(F)F)[C@H](O)[C@H](C)O2)C1)C(=O)c1c(OC)cccc1C3=O | inactive: 1.01
Cc1noc(C)c1S(=O)(=O)Nc1ccc2c(c1)CC(=O)N([C@@H](C)CO)C[C@@H](C)[C@H](CN(C)S(=O)(=O)c1ccc(F)cc1)O2 | inactive: 0.997

SMILES | relative growth
C[C@@H]1CN([C@@H](C)CO)C(=O)Cc2cc(NC(=O)C3CC3)ccc2O[C@H]1CN(C)S(=O)(=O)c1ccc(F)cc1 | inactive: 0.975
COc1ccc(NC(=O)Nc2ccc3c(c2)C(=O)N([C@H](C)CO)C[C@@H](C)[C@H](CN(C)C(=O)Cc2ccccc2)OCCCC[C@H](C)O3)cc1 | inactive: 0.99
C[C@@H]1CN([C@H](C)CO)C(=O)c2cccc(NS(=O)(=O)c3ccc(Cl)cc3)c2O[C@@H]1CN(C)C(=O)Nc1cccc2ccccc12 | inactive: 0.999
C[C@@H]1CN([C@@H](C)CO)C(=O)c2cc(NC(=O)Nc3ccccc3)ccc2O[C@H]1CN(C)CC1CCCCC1 | inactive: 0.997
C[C@@H]1CN([C@@H](C)CO)C(=O)c2cccc(NC(=O)C3CCOCC3)c2O[C@@H]1CN(C)Cc1ccc(-c2ccccc2)cc1 | inactive: 1.03
C[C@H](CO)N1C[C@H](C)[C@H](CN(C)C(=O)Nc2ccccc2)OCc2ccccc2-c2c(n(C)c3ccccc23)C1=O | inactive: 1.01
CC(C)c1c(O)c(-c2cc3c(c(C(C)C)c2O)CC[C@H]2C(C)(C)CCC[C@]32C)cc2c1CC[C@H]1C(C)(C)CCC[C@]21C | inactive: 0.995
C[C@H](CO)N1C[C@H](C)[C@H](CN(C)Cc2ccncc2)Oc2ccc(NC(=O)Cn3cnnn3)cc2CC1=O | inactive: 1
C[C@H]1CN([C@@H](C)CO)C(=O)c2cc(NC(=O)Cc3cn(C)c4ccccc34)ccc2O[C@@H]1CN(C)Cc1ccc(Cl)c(Cl)c1 | inactive: 0.971
C[C@@H]1CN([C@@H](C)CO)C(=O)c2cc(NC(=O)Cc3ccccc3)ccc2O[C@@H](C)CCCCO[C@@H]1CN(C)S(=O)(=O)c1ccc(F)cc1 | inactive: 1.01
O=C(Nc1cc(Cl)ccc1Cl)c1cc(Cl)ccc1NS(=O)(=O)c1ccc(Cl)c([N+](=O)[O-])c1 | inactive: 0.704
CCC[C@@H](O)C#Cc1cnc2c(c1)C(=O)N([C@H](C)CO)C[C@H](C)[C@H](CN(C)Cc1ccc3c(c1)OCO3)O2 | inactive: 0.98
C[C@@H]1CN([C@H](C)CO)C(=O)Cc2cc(NC(=O)C3CCCCC3)ccc2O[C@H]1CN(C)Cc1ccc(Oc2ccccc2)cc1 | inactive: 1
COc1ccccc1-c1ccc2c(c1)O[C@H](CN(C)S(=O)(=O)c1ccccc1)[C@H](C)CN([C@H](C)CO)S2(=O)=O | inactive: 1.04
C[C@H](CO)N1C[C@H](C)[C@H](CN(C)C(=O)Nc2ccc(F)cc2)OCCCC[C@H](C)Oc2ccc(NC(=O)c3ccccc3)cc2C1=O | inactive: 1.02
C[C@@H]1CN([C@H](C)CO)C(=O)c2cccc(NC(=O)Nc3ccc(C(F)(F)F)cc3)c2O[C@@H]1CN(C)Cc1ccc2c(c1)OCO2 | inactive: 0.946
C[C@@H]1CN([C@H](C)CO)C(=O)c2cccc(NC(=O)c3ccncc3)c2O[C@@H]1CN(C)Cc1ccc(C(=O)O)cc1 | inactive: 0.996
Cc1noc(C)c1NC(=O)Nc1cccc2c1O[C@H](CN(C)S(=O)(=O)c1ccccc1)[C@H](C)CN([C@@H](C)CO)C2=O | inactive: 1.01
C[C@@H]1CN([C@@H](C)CO)C(=O)Cc2cc(NC(=O)Cc3ccccc3)ccc2O[C@@H]1CN(C)C(=O)Nc1ccc(C(F)(F)F)cc1 | inactive: 0.998
